Here are results for three proteins from article PMC4080824, “Altered native stability is the dominant basis for susceptibility of α1-antitrypsin mutants to polymerization” (Biochemical Journal, 2014).

Series [1] concerns the molecule itself. In words: FRET or BRET; mutant series; 0.2 mg/ml protein, 4 μM Atto550–Ni-NTA and 4 μM Atto647N–Ni-NTA on the His6 tag, 10 mM NaH2PO4/Na2HPO4, 100 mM NaCl pH 7.4; heat-induced polymerization at 65°C; time to half-maximal signal. Background: Bioluminescence resonance energy transfer reports proximity on the nanometre scale.
Series [2] concerns the molecule itself. In words: FRET or BRET; mutant series; 0.2 mg/ml protein, 4 μM Atto550–Ni-NTA and 4 μM Atto647N–Ni-NTA on the His6 tag, 10 mM NaH2PO4/Na2HPO4, 100 mM NaCl pH 7.4; heat-induced polymerization at 55°C; time to half-maximal signal.
Series [3] deals with the molecule itself. In words: FRET or BRET; mutant series; 0.2 mg/ml protein, 4 μM Atto550–Ni-NTA and 4 μM Atto647N–Ni-NTA on the His6 tag, 10 mM NaH2PO4/Na2HPO4, 100 mM NaCl pH 7.4; heat-induced polymerization at 60°C; time to half-maximal signal.

B1: α1-antitrypsin C232S (AT_(C232S)) (natural protein)
chain: not shown
notes: α1-antitrypsin, wild-type (M) ORF with C232S; probably the mature protein without signal peptide (surmised); also called control; source: E. coli SG13009/pREP4 (pQE-30) or BL21(DE3) (pQE-81L), purified; not shown: His6, N-terminal, kept
As for B1, the “polymerization half-time (t0.5)” value in series [1] was determined as 38 s; in series [2] it was 880 s; in series [3], 109 s.

B2: α1-antitrypsin C232S K335A (natural protein)
chain: not shown
notes: α1-antitrypsin, wild-type (M) ORF on the C232S background; Same construct as m3 with the stated changes; source: E. coli SG13009/pREP4 (pQE-30) or BL21(DE3) (pQE-81L), purified; not shown: His6, N-terminal, kept
For the protein B2, the “polymerization half-time (t0.5)” value in series [1] turned out to be 2520 s; in series [2], 40400 s; in series [3] it was 14200 s.

B3: α1-antitrypsin C232S K331V (natural protein)
chain: not shown
notes: as for B2
On to B3, for which the figures for the “polymerization half-time (t0.5)” value in series [1], in series [2] and in series [3] were 39 s, 1310 s and 248 s, respectively.
